Tests used:
[1] = Franz–PAMPA permeation study (lipid-impregnated artificial membrane on Franz cells)
[2] = cited from earlier work
[3] = pH 7.4; cited from earlier work
Caco-2 cells = settings: cited from earlier work
[4] = pH 7.4, Papp Franz–PAMPA, PBS pH 7.4, 37 °C, 500 rpm, 12 h, n = 3, best fit of linear portion (sink equation)
[5] = pH 7.4, Papp Non-Sink Arthurson, Franz–PAMPA data, non-sink equation

CC(C)NCC(O)COc1ccc(CC(N)=O)cc1 (stereo not shown) [Atenolol]
Papp at 12 h, 10 mg/mL [1, 4]: 25.8 ×10⁻⁶ cm/s
Papp at 12 h, 10 mg/mL [1, 5]: 22 ×10⁻⁶ cm/s
Papp Corti [2]: 20.9 ×10⁻⁶ cm/s

NS(=O)(=O)c1cc(C(=O)O)c(NCc2ccco2)cc1Cl [Furosemide]
Papp PAMPA pH 7,4 [3]: 0.6 × 10^−6 cm/s
Papp Caco-2 (Caco-2 cells): 0.1 ×10⁻⁶ cm/s
Papp Corti [2]: 27.5 ×10⁻⁶ cm/s

COc1ccc2cc([C@H](C)C(=O)O)ccc2c1 [Naproxen]
Papp PAMPA pH 7,4 [3]: 10.6 × 10^−6 cm/s
Papp at 12 h, 10 mg/mL [1, 4]: 2.89 ×10⁻⁶ cm/s
Papp at 12 h, 10 mg/mL [1, 5]: 1.7 ×10⁻⁶ cm/s
Papp Caco-2 (Caco-2 cells): 39.5 ×10⁻⁶ cm/s
